# About 64,000 (15%) of roughly 420,000 compounds were called active. The shares of active, inactive and inconclusive entries below differ from those in the screen. Calls come from the whole dose curve; as a rule, active = well fitted inhibition curve with a large enough effect; inconclusive = small, poorly fitted or top-dose-only effect; inactive = flat fitted curve, though single readings scatter. No potency is given beside an inconclusive call; the fits are too rough.
# Assay: qHTS for Inhibitors of human tyrosyl-DNA phosphodiesterase 1 (TDP1): qHTS in cells in absence of CPT; note: nearly all actives have a fitted effect of over 55% in size
# Conditions: DT40 Tdp1-/- hTDP1 cells, no CPT, ATP luminescence, 48 h; activity change, negative = growth inhibition: at 46.2 µM (top of the series)
# In short: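 No-CPT arm: Tdp1-/-;hTDP1 DT40 cells (400/well) plus compounds, incubated ≥48 hr at 37 °C. Readout CellTiter-Glo luminescence.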
# % is set by controls: 0 for no effect and ±100 for the full control effect; potency is the fitted concentration of half-maximal effect; tags give direction and shape of the fitted curve.
Structure (SMILES),Potency,"activity change, negative = growth inhibition"
COc1ccc(NC2=Nc3cccc4cccc2c34)cc1OC,active: 25.9 µM,–
N#CCCN(C(=O)COC(=O)c1ccc(S(=O)(=O)N2CCCCCC2)cc1)c1ccccc1,–,inactive: -20.9%
COc1cc(C(=O)NCc2ccncc2)cc(Br)c1OCc1ccccc1,active: 23.1 µM,–
CN(Cc1cccnc1)Cc1cn[nH]c1-c1ccc(-c2ccccc2)cc1,"inconclusive [inhibitor, single point]",–
O=C(N[C@H](CO)Cc1ccccc1)[C@H]1O[C@@H](n2ccc(=O)[nH]c2=O)[C@H](O)[C@@H]1O,–,inactive: 0.617%
Cc1ccc(-c2c(CN3CCN(c4cccc(C)c4)C(C)C3)csc2C)cc1 (stereo not given),active: 16.4 µM,–
Cc1sc2ncnc(NC3CCN(Cc4ccccc4)CC3)c2c1C,active: 3.66 µM,–
CC1(C(=O)NCC(F)(F)F)CCN1C(=O)Cc1ccc(-c2ccccc2)cc1 (stereo not given),"inconclusive [inhibitor, single point]",–
CC(C)CC(=O)N1c2nc(C(C)C)nn2C2(CCCCC2)[C@@H]2CCCC[C@@H]21,–,inconclusive: -19.3% [inhibitor]
COc1ccc(-c2nnnn2C(C)C)cc1,"inconclusive [inhibitor, partial curve]",–
c1ccc(-c2ccccc2OCCCN2CCOCC2)cc1,–,inactive: -28.2%
O=C(COC(=O)c1ccc(N2CCCC2=O)cc1)c1ccc(OC(F)F)cc1,–,inactive: -19.2%
CCOc1ccc(C(=O)Nc2nnc(C3=COCCO3)o2)cc1,"inconclusive [inhibitor, single point]",–
CC(C)=CCN1CCN(Cc2cccnc2)CC1CCO (stereo not given),–,inactive: 21.2%
Cc1ccc2onc(CC(=O)N3CCN(c4ccc(F)cc4)CC3)c2c1,"inconclusive [inhibitor, single point]",–
Cc1csc(N=Cc2ccc([N+](=O)[O-])o2)n1,active: 10.3 µM,–
CNC(=O)C1(C)Cc2c(-c3ccc4c(c3)OCO4)ccnc2O1 (stereo not given),"inconclusive [inhibitor, partial curve]",–
CCCCOC(=O)c1ccc(NC(=S)NC(=O)c2c(Br)c(C)nn2C)cc1,active: 20.6 µM,–
C=CCN(CC=C)CCOc1cccc2ccccc12,"inconclusive [inhibitor, single point]",–
COc1cccc(C(C)(O)c2nc(-c3csc4ccccc34)cs2)c1 (stereo not given),–,inactive: -91.9%
Oc1ccccc1-c1cnc2cccnn12,"inconclusive [inhibitor, partial curve, poor fit]",–
CCOCCCn1c(SCC(=O)Nc2ccc(OC)cc2)nc2ccccc2c1=O,active: 18.4 µM,–
CC(C)(CN1CCCC1)NC(=O)C1CCC(=O)N(CCCN2CCOCC2)C1 (stereo not given),–,inactive: 15.9%
CCOc1ccc(CCNC(=O)c2cnc3sc(N(CC)CC)nn3c2=O)cc1OCC,"inconclusive [inhibitor, partial curve]",–
COc1cc(C)c(CN2CCN(CC(=O)Nc3ccccc3C(=O)NC3CC3)CC2)cc1OC,–,inactive: -4.87%

Structure (SMILES),Potency,"activity change, negative = growth inhibition"
CC(=O)N1CCSc2ccc(S(=O)(=O)Nc3ccc(C)cc3)cc21,–,inactive: -16%
Oc1c(N=NC(=S)Nc2ccccc2F)c2ccccc2n1Cc1cccc(Cl)c1,active: 6.51 µM,–
CC(=O)c1ccc(Nc2nc(C(N)Cc3ccc(C(F)(F)F)cc3)cs2)cc1 (stereo not given),active: 16.4 µM,–
CC(=O)Nc1ccc(S(=O)(=O)N2CCN(C(=O)c3ncoc3-c3ccccc3)CC2)cc1,active: 11.6 µM,–
CN(CCCNC(=O)c1cc2c(Cl)nc3ccccc3c2s1)Cc1ccccc1,active: 20.6 µM,–
C#Cc1ccc(NC(=O)C2(C)CCN2C(=O)C2(c3ccccc3)CC2)cc1 (stereo not given),"inconclusive [inhibitor, single point]",–
S=C(NCC1CCCO1)Nc1ccc(Cl)cc1 (stereo not given),–,inactive: -23.4%
COc1ccc(C(C)(NC(C)=O)c2nc(-c3cccc(C(=O)O)c3)cs2)cc1 (stereo not given),–,inactive: -5.41%
COc1ccc([C@H]2CC(=O)C=C(c3ccc(Br)c4ccccc34)C2)cc1,–,inactive: -2.29%
CS(=O)(=O)c1ccc(NC(=O)C2CC(=O)N(c3ccc4c(c3)OCCO4)C2)cc1 (stereo not given),–,inactive: -15.4%
CN1C(=O)[C@@H]2[C@@H]3C[C@@H]([C@H]4ON=C(c5ccc(Cl)cc5)[C@@H]34)[C@@H]2C1=O,–,inconclusive: -33.5% [inhibitor]
Cc1cccc(C)c1NC(=O)CN(C)C(=O)CSC(=S)N1CCCC1,–,inactive: 11.9%
Cc1ccc2c(c1)C(=C(C#N)C#N)C(=O)N2CCN1CCCCC1,active: 18.4 µM,–
O=C(N/N=C/c1ccc(OCCCF)cc1)c1cc(OCC(F)(F)F)ccc1OCC(F)(F)F,–,inactive: -13.2%
Cc1cc(C)c(NC(=O)Cn2cc(S(=O)(=O)Cc3ccccc3F)c3ccccc32)c(C)c1,"inconclusive [inhibitor, single point]",–
CC(C)(C)c1cc(CCC(=O)NCC2CCCO2)cc(C(C)(C)C)c1O (stereo not given),–,inactive: -9.04%
Cc1ccc(C2C=CC(C#N)=CN2Cc2ccccc2)cc1 (stereo not given),"inconclusive [inhibitor, single point]",–
COc1ccc(OC)c(CNS(=O)(=O)c2ccc3c(c2)CCCN3C(C)=O)c1,"inconclusive [inhibitor, single point]",–
O=C(CN1C(=O)NC2(CCCC2)C1=O)Nc1ccc(F)c([N+](=O)[O-])c1,–,inconclusive: -34.2% [inhibitor]
COCCCNC(=S)Nc1cccc(SC)c1,–,inactive: -0.157%
CCOc1cc(/C=C2\C(=O)N(c3cccc(C(F)(F)F)c3)C(=O)c3ccccc32)ccc1O,"inconclusive [inhibitor, single point]",–
CSCCC(NC(=O)C1CCC(C)CC1)C(=O)Nc1ccc(NC(C)=O)cc1 (stereo not given),–,inactive: -1.28%
Cc1cc(C)cc(S(=O)(=O)N2CCN(c3nc(-c4cccs4)nc4ccccc34)CC2)c1,"inconclusive [inhibitor, single point]",–
Cc1cc(C(=O)C(=O)N(C)C)c(C)n1-c1ccc([N+](=O)[O-])cc1,–,inactive: -24.7%
COc1ccc(CCNC(=O)c2ccc(Nc3nc4ccccc4n4nnnc34)cc2)cc1OC,"inconclusive [inhibitor, partial curve]",–

Structure (SMILES),Potency,"activity change, negative = growth inhibition"
Cc1nn(-c2ccccc2)c2c1C(c1ccc(F)cc1)C(C#N)=C(N)O2 (stereo not given),"inconclusive [inhibitor, single point]",–
Cc1cccc(C)c1OCC(O)CN1CCN(c2ccccn2)CC1 (stereo not given),–,inactive: -6.2%
CCOC(=O)c1c(C)nc2sc3c(=O)n(-c4ccc(C(C)=O)cc4)nnc3c2c1-c1ccc(Cl)cc1,active: 16.4 µM,–
Cc1cccc(N(CC(O)Cn2c3ccccc3c3ccccc32)S(=O)(=O)c2ccc(F)cc2)c1 (stereo not given),active: 8.2 µM,–
O=C(Nc1ccc(S(=O)(=O)N2CCOCC2)cc1)c1cc(S(=O)(=O)N2CCOCC2)ccc1Cl,"inconclusive [inhibitor, partial curve]",–
CCOc1ccc(NC(=O)CSc2nnnn2-c2ccc(C(N)=O)cc2)cc1,–,inactive: -19.9%
NC(=O)c1oc2ccccc2c1NC(=O)CCc1ccccc1,"inconclusive [inhibitor, single point]",–
Cc1ccc(-c2[nH]ncc2CNCc2ccccc2)cc1,active: 17.8 µM,–
O=C(CCS(=O)(=O)c1cccc2nonc12)Nc1c(F)cccc1F,"inconclusive [inhibitor, single point]",–
COCCCn1c(C(=O)Nc2ccc3c(c2)OCO3)cc2c(=O)n3cccc(C)c3nc21,active: 11.6 µM,–
Cc1cc(C)cc(NC(=O)N2CCC3(CC2)Oc2ccccc2C(=O)N3Cc2ccccc2F)c1,"inconclusive [inhibitor, partial curve]",–
O=C(NCCCN1CCOCC1)c1ccc2c(c1)N(Cc1ccc(F)cc1)CCS2,"inconclusive [inhibitor, partial curve, poor fit]",–
CCOC(=O)c1ccc(CN(Cc2ccc(F)cc2)S(=O)(=O)c2ccc(F)c(C(=O)Nc3ccc(Cl)cc3F)c2)cc1,–,inactive: -9.06%
Cc1cc(N2CC34C=CC(O3)C(C(=O)O)C4C2=O)no1 (stereo not given),"inconclusive [inhibitor, full curve, poor fit]",–
O=S(=O)(Nc1ccc(Br)cc1F)c1ccc2nc(-c3ccccc3)[nH]c2c1,"inconclusive [inhibitor, single point]",–
COc1cccc(N2CCN(C(=O)c3cccc(-n4c(C)nc5cccnc54)c3)CC2)c1,active: 16.4 µM,–
Cc1ccccc1OC(C)C(=O)NCCNC(=O)C(C)Oc1ccccc1C (stereo not given),"inconclusive [inhibitor, single point]",–
Cc1ccccc1NC1=C(Cl)C(=O)N(C2CCCCC2)C1=O,"inconclusive [inhibitor, single point]",–
CC1CCN(C(=O)c2[nH]cnc2C(=O)Nc2cccc(Cl)c2)CC1,"inconclusive [inhibitor, partial curve, poor fit]",–
COc1ccc(OC)c(Nc2ncnc3c2cnn3-c2ccccc2)c1,"inconclusive [inhibitor, partial curve]",–
O=C(CSc1nnc(-c2ccccc2F)o1)N1CCNC1=O,–,inactive: 9.08%
COc1ccc(Br)c(C(=O)Nc2cc3c(cc2N2CCOCC2)n(C)c(=O)n3C)c1,"inconclusive [inhibitor, single point]",–
Fc1ccc(-c2cc(C(F)(F)F)nc(-n3cc(Cl)cn3)n2)cc1,"inconclusive [inhibitor, single point]",–
CCOc1ccc(NC(=O)c2c(NCc3cccnc3)sc3c2CCCC3)cc1,"inconclusive [inhibitor, single point]",–
O=C(O)C[C@@H](O)C(=O)O,–,inactive: 0.398%
